# Test results reported in the supplement of paper PMC8728848.
# The list shows a part of the results.
# B1: PX9961U-pdi-543-24-543 (Parabacteroides distasonis) (protein)
# chain: EEPVGEFLPGQVESEENIEGIVTGAYAVLDGYYASDAINSGCSNWQFGDVVSDDAYKGGGGTGDQNQIHLMEIFNANPTGIDFEARWAALYEGIKRCNQAIRLLNGSEVKNKEQRLAEMRFLRGHYYFNLKIIYNQIPWIDETLVDPNEYNKKSNIEFSSDQLWEKILEEFSAAYKVLPESQADYGRPTKMAARAYMAKVYLYQSKWKECLEACDEVIQSGKYELFPDFRNVFLPENDNCSEIIFAIQLSINDGSPNNENGSYGDRLLPPGGPYPVYGFLRPTQNLVNAYKTDVKGLPYNDGKDVSENDYVDVRLDHTLARPNIPFMDVQLYDWTPREASVYGPYSPKKRLVSLNSTYYSPIWPYVNALNFYVIRYADLLLWRAEAAIETGDLETGRKYINMIRERAKNTQHVKTMDQSQDAANYKVGVYDEPFKSKNEAVQALRMERRLEMAHEGIRFFDLVRWGVADEVINAYIAKEKVFRSHLQNAHFVKGKHEYFPIPQSMIDICGTEVMKQNPGY
# Experiments:
# Assay in all cases: glycan array binding signal (z-score within array); higher = stronger binding
# Conditions in all cases: glycan notation: IUPAC condensed, linker removed
# [1] = target: GlcNAc(b1-2)Gal(b1-3)GalNAc
# In short: (§1)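 The binding signal is a Z-score computed within each array and averaged over linkers. Arrays of the same protein sequence at different concentrations or buffers were also averaged together. Data originate from 3228 arrays in the Consortium for Functional Glycomics database, kept only where the protein sequence was available.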
# [2] = target: GlcNAc(b1-2)Man(a1-3)[GlcNAc(b1-2)Man(a1-6)]Man(b1-4)GlcNAc(b1-4)GlcNAc
# In short: as §1
# [3] = target: GlcNAc(b1-2)Man(a1-3)[GlcNAc(b1-2)Man(a1-6)]Man(b1-4)GlcNAc(b1-4)[Fuc(a1-6)]GlcNAc
# In short: as §1
# [4] = target: GlcNAc(b1-2)Man(a1-3)[GlcNAc(b1-4)][GlcNAc(b1-2)Man(a1-6)]Man(b1-4)GlcNAc(b1-4)GlcNAc
# In short: as §1
# [5] = target: GlcNAc(b1-2)Man(a1-3)[GlcNAc(b1-4)][GlcNAc(b1-2)Man(a1-6)]Man(b1-4)GlcNAc(b1-4)[Fuc(a1-6)]GlcNAc
# In short: as §1
# [6] = target: GlcNAc(b1-2)[GlcNAc(b1-4)]Man(a1-3)[GlcNAc(b1-2)Man(a1-6)]Man(b1-4)GlcNAc(b1-4)GlcNAc
# In short: as §1
# [7] = target: GlcNAc(b1-2)[GlcNAc(b1-4)]Man(a1-3)[GlcNAc(b1-4)][GlcNAc(b1-2)Man(a1-6)]Man(b1-4)GlcNAc(b1-4)GlcNAc
# In short: as §1
# [8] = target: GlcNAc(b1-2)[GlcNAc(b1-4)]Man(a1-3)[GlcNAc(b1-4)][GlcNAc(b1-2)[GlcNAc(b1-6)]Man(a1-6)]Man(b1-4)GlcNAc(b1-4)GlcNAc
# In short: as §1
# [9] = target: GlcNAc(b1-2)[GlcNAc(b1-4)]Man(a1-3)[GlcNAc(b1-4)][GlcNAc(b1-2)[GlcNAc(b1-6)]Man(a1-6)]Man(b1-4)GlcNAc(b1-4)[Fuc(a1-6)]GlcNAc
# In short: as §1
# [10] = target: GlcNAc(b1-2)[GlcNAc(b1-6)]Man(a1-6)[GlcNAc(b1-2)Man(a1-3)]Man(b1-4)GlcNAc(b1-4)GlcNAc
# In short: as §1
# [11] = target: GlcNAc(b1-2)[GlcNAc(b1-6)]Man(a1-6)[GlcNAc(b1-2)Man(a1-3)]Man(b1-4)GlcNAc(b1-4)[Fuc(a1-6)]GlcNAc
# In short: as §1
# [12] = target: GlcNAc(b1-2)[GlcNAc(b1-6)]Man(a1-6)[GlcNAc(b1-4)][GlcNAc(b1-2)Man(a1-3)]Man(b1-4)GlcNAc(b1-4)GlcNAc
# In short: as §1
# [13] = target: GlcNAc(b1-3)Fuc
# In short: as §1
# [14] = target: GlcNAc(b1-3)Gal
# In short: as §1
# [15] = target: GlcNAc(b1-3)Gal(b1-3)GalNAc
# In short: as §1
# [16] = target: GlcNAc(b1-3)Gal(b1-4)Glc
# In short: as §1
# [17] = target: GlcNAc(b1-3)Gal(b1-4)GlcNAc
# In short: as §1
# [18] = target: GlcNAc(b1-3)Gal(b1-4)GlcNAc(b1-2)Man(a1-3)[GlcNAc(b1-3)Gal(b1-4)GlcNAc(b1-2)Man(a1-6)]Man(b1-4)GlcNAc(b1-4)GlcNAc
# In short: as §1
binder,measurement,setting,value
B1,glycan array binding signal (z-score),[1],-0.479
same,glycan array binding signal (z-score),[2],-0.369
same,glycan array binding signal (z-score),[3],-0.208
same,glycan array binding signal (z-score),[4],-0.333
same,glycan array binding signal (z-score),[5],-0.452
same,glycan array binding signal (z-score),[6],-0.415
same,glycan array binding signal (z-score),[7],-0.449
same,glycan array binding signal (z-score),[8],-0.386
same,glycan array binding signal (z-score),[9],-0.463
same,glycan array binding signal (z-score),[10],-0.366
same,glycan array binding signal (z-score),[11],-0.304
same,glycan array binding signal (z-score),[12],-0.444
same,glycan array binding signal (z-score),[13],-0.37
same,glycan array binding signal (z-score),[14],-0.394
same,glycan array binding signal (z-score),[15],-0.418
same,glycan array binding signal (z-score),[16],-0.369
same,glycan array binding signal (z-score),[17],-0.432
same,glycan array binding signal (z-score),[18],-0.362
